Measurements published in a collection of fitness landscapes (doi:10.1016/j.celrep.2020.107928).
The full ranking holds about 81,000 sequences; the median of “one-hybrid fitness for binding NBS DNA” is about -0.1, and the highest 2% start at about 0.36. Some of the results follow.

B1: Caulobacter ParB omega fusion; a variant is named by its letters at X, in order, B8GW30 (parent)
chain: MESVVVGEPGMSEGRRGLGRGLSALLGEVDAAPAQAPGEQLGGSREAPIEILQRNPDQPRRTFREEDLEDLSNSIREKGVLQPILVRPSPDTAGEYQIVAGERAWRAAQRAGLKTVPIMVRELDDLAVLEIGIIENVQRADLNVLEEALSYKVLMEKFERTQENIAQTIGKSXSHVANXMRLLXLPDEVQSYLVSGELTAXHARAIAAAADPVALAKQIIEGGLSVRETEALARKAPNLSAGKSKGGRPPRVKDTDTQALESDLSSVLGLDVSIDHRGSTGTLTITYATLEQLDDLCNRLTRGI

Variants of: B1
Assay: one-hybrid fitness for binding NBS DNA (the Noc-binding site; scaled: cognate 1, non-cognate 0); higher = stronger binding
Conditions: with NBS DNA site
In short: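 Caulobacter ParB libraries with four specificity codons randomised were screened by bacterial one-hybrid selection in the E. coli USO strain, using a HIS3 reporter whose site lies 19 bp from the promoter. Selection ran for 48 hours at 37°C on M9 lacking histidine, with 0.1 mM IPTG and 5 mM 3-AT. Plasmids were Illumina-sequenced before and after selection, three replicate libraries were pooled, and variants with under 10 reads were dropped. Fitness is the log change in each variant's read ratio to wild type, rescaled against the cognate and non-cognate sites.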

Variant | one-hybrid fitness for binding NBS DNA
MTKQ | ≤ 0.2
LIQC | ≤ 0.2
RAEI | ≤ 0.2
PTSE | ≤ 0.2
DQNF | ≤ 0.2
HNTN | ≤ 0.2
RVDP | ≤ 0.2
LWVG | ≤ 0.2
RKNT | 0.698
LYRY | ≤ 0.2
DVFC | ≤ 0.2
PCTY | ≤ 0.2
MRCE | ≤ 0.2
SNYC | ≤ 0.2
YQMA | ≤ 0.2
VHHC | ≤ 0.2
ILYN | ≤ 0.2
NFPG | ≤ 0.2
AMWR | ≤ 0.2
QCYG | ≤ 0.2
PVSR | ≤ 0.2
SFSS | ≤ 0.2
SIAM | ≤ 0.2
PIAL | ≤ 0.2

Variant | one-hybrid fitness for binding NBS DNA
YTTF | ≤ 0.2
VQHI | ≤ 0.2
DVDC | ≤ 0.2
TFLK | ≤ 0.2
MLRE | ≤ 0.2
PCSK | ≤ 0.2
ERKR | 0.275
ALGL | ≤ 0.2
NTDR | ≤ 0.2
GSIA | ≤ 0.2
RWAV | ≤ 0.2
WSED | ≤ 0.2
HGAD | ≤ 0.2
GRTE | ≤ 0.2
TTEN | ≤ 0.2
RKCV | ≤ 0.2
WEIL | ≤ 0.2
DSNG | ≤ 0.2
RYDY | ≤ 0.2
ACPY | ≤ 0.2
ERHV | ≤ 0.2
DAWC | ≤ 0.2
LQAL | ≤ 0.2
SCKS | ≤ 0.2

Variant | one-hybrid fitness for binding NBS DNA
DPLE | ≤ 0.2
QHSH | ≤ 0.2
LTCC | ≤ 0.2
EKCC | ≤ 0.2
NWAR | ≤ 0.2
WWCY | ≤ 0.2
LVVV | ≤ 0.2
YTRS | ≤ 0.2
SNVG | ≤ 0.2
GGSP | ≤ 0.2
TRGE | ≤ 0.2
TKAF | ≤ 0.2
KHVM | ≤ 0.2
CRHK | ≤ 0.2
QPSE | ≤ 0.2
HTKF | ≤ 0.2
FPTT | ≤ 0.2
TSTH | ≤ 0.2
MRNR | ≤ 0.2
HIES | ≤ 0.2
IDDR | ≤ 0.2
QPAF | ≤ 0.2
MFRK | ≤ 0.2
AYQG | ≤ 0.2

Variant | one-hybrid fitness for binding NBS DNA
RKEP | ≤ 0.2
YSLR | ≤ 0.2
SKIL | ≤ 0.2
PAIM | ≤ 0.2
AVYR | ≤ 0.2
NKVR | ≤ 0.2
TQKA | ≤ 0.2
CSPP | ≤ 0.2
FHKL | ≤ 0.2
PNAN | ≤ 0.2
DTPR | ≤ 0.2
IPMD | ≤ 0.2
ECKR | ≤ 0.2
RKQR | 0.573
LSYM | ≤ 0.2
MLAD | ≤ 0.2
RGTA | ≤ 0.2
CYLC | ≤ 0.2
NHTV | ≤ 0.2
TSPF | ≤ 0.2
AFAG | ≤ 0.2
PSGA | ≤ 0.2
SHIP | ≤ 0.2
HHLI | ≤ 0.2

Variant | one-hybrid fitness for binding NBS DNA
EAPW | ≤ 0.2
CASS | ≤ 0.2
GAEP | ≤ 0.2
ELPK | ≤ 0.2
RLFM | ≤ 0.2
RCPY | ≤ 0.2
HAGF | ≤ 0.2
ESLR | ≤ 0.2
HLDG | ≤ 0.2
HSLW | ≤ 0.2
FGAT | ≤ 0.2
CWIR | 0.36
PGWR | ≤ 0.2
PACA | ≤ 0.2
RWEY | ≤ 0.2
IENT | ≤ 0.2
HNAG | ≤ 0.2
SGKG | ≤ 0.2
QVYI | ≤ 0.2
QNTD | ≤ 0.2
ELPE | ≤ 0.2
WMLA | ≤ 0.2
SAKA | ≤ 0.2
IQDT | ≤ 0.2

Variant | one-hybrid fitness for binding NBS DNA
ATCF | ≤ 0.2
CLYL | ≤ 0.2
LDMK | ≤ 0.2
GCNC | ≤ 0.2
HDLC | ≤ 0.2
GNSW | ≤ 0.2
PYWI | ≤ 0.2
LDTV | ≤ 0.2
IYTT | ≤ 0.2
EFAS | ≤ 0.2
ENHC | ≤ 0.2
LCKY | ≤ 0.2
CGGV | ≤ 0.2
HGNW | ≤ 0.2
FDNC | ≤ 0.2
LQTS | ≤ 0.2
RSAT | 0.414
QCMK | ≤ 0.2
PIVR | ≤ 0.2
TTCS | ≤ 0.2
ASRY | ≤ 0.2
AMPM | ≤ 0.2
YARA | ≤ 0.2
VARE | ≤ 0.2

Variant | one-hybrid fitness for binding NBS DNA
SEKY | ≤ 0.2
TMKN | ≤ 0.2
AFTT | ≤ 0.2
SMYK | ≤ 0.2
YEDS | ≤ 0.2
LFDS | ≤ 0.2
YLCS | ≤ 0.2
HTET | ≤ 0.2
SYLC | ≤ 0.2
VYPS | ≤ 0.2
WWPE | ≤ 0.2
ENTI | ≤ 0.2
TGLS | ≤ 0.2
WNHG | ≤ 0.2
QYNI | ≤ 0.2
SYWY | ≤ 0.2
WQDR | ≤ 0.2
EMMR | 0.344
FCQC | ≤ 0.2
KAAM | ≤ 0.2
NTYR | ≤ 0.2
PSQL | ≤ 0.2
VKCA | ≤ 0.2
TKYI | ≤ 0.2

Variant | one-hybrid fitness for binding NBS DNA
HHRV | ≤ 0.2
MGKC | ≤ 0.2
VSTL | ≤ 0.2
PIDG | ≤ 0.2
AYLG | ≤ 0.2
RPQD | ≤ 0.2
RDYR | ≤ 0.2
PHCY | ≤ 0.2
SIKD | ≤ 0.2
VVTQ | ≤ 0.2
WTPH | ≤ 0.2
RWCN | ≤ 0.2
PQHR | ≤ 0.2
NYVI | ≤ 0.2
WKGT | ≤ 0.2
EMKS | ≤ 0.2
CCVG | ≤ 0.2
APFF | ≤ 0.2
LAGH | ≤ 0.2
QSHA | 0.275
YEVS | ≤ 0.2
CTLN | ≤ 0.2
RYMA | ≤ 0.2
QHQT | 0.363

Variant | one-hybrid fitness for binding NBS DNA
PGND | ≤ 0.2
PYVQ | ≤ 0.2
WTGH | ≤ 0.2
NFGT | ≤ 0.2
LSWL | ≤ 0.2
KSDT | ≤ 0.2
DSDL | ≤ 0.2
RILW | ≤ 0.2
NLFG | ≤ 0.2
QVRM | ≤ 0.2
QTTN | 0.236
QSKD | 0.203
LDND | ≤ 0.2
SLTD | ≤ 0.2
DQTG | ≤ 0.2
VLDY | ≤ 0.2
RAMD | ≤ 0.2
LEID | ≤ 0.2
IDLR | ≤ 0.2
NYQC | ≤ 0.2
FCQS | ≤ 0.2
STPN | ≤ 0.2
IRPV | ≤ 0.2
TLPP | ≤ 0.2

Variant | one-hybrid fitness for binding NBS DNA
LQDI | ≤ 0.2
YHPM | ≤ 0.2
DTML | ≤ 0.2
ELDT | ≤ 0.2
AVMP | ≤ 0.2
ETHW | ≤ 0.2
CPYT | ≤ 0.2
ATQS | ≤ 0.2
TNCV | ≤ 0.2
PQPS | ≤ 0.2
FPKF | ≤ 0.2
RSWA | ≤ 0.2
GENV | ≤ 0.2
SQQR | ≤ 0.2
NLIV | ≤ 0.2
MAFG | ≤ 0.2
PYIL | ≤ 0.2
TFNC | ≤ 0.2
PLAE | ≤ 0.2
PPDR | ≤ 0.2
MQQS | ≤ 0.2
HNTV | ≤ 0.2
SDGM | ≤ 0.2
PPPY | ≤ 0.2

Variant | one-hybrid fitness for binding NBS DNA
GMWK | ≤ 0.2
AGQY | ≤ 0.2
ILGC | ≤ 0.2
HPNT | ≤ 0.2
WHCS | ≤ 0.2
YFEG | ≤ 0.2
LTPG | ≤ 0.2
MDMG | ≤ 0.2
QYQS | 0.373
IFWT | ≤ 0.2
ENWC | ≤ 0.2
SENF | ≤ 0.2
SNGS | ≤ 0.2
TMPY | ≤ 0.2
RSIF | ≤ 0.2
YYQS | ≤ 0.2
GPCT | ≤ 0.2
STCF | ≤ 0.2
NDTC | ≤ 0.2
SAAD | ≤ 0.2
LRKD | ≤ 0.2
HVHC | ≤ 0.2
CSII | ≤ 0.2
WQGG | ≤ 0.2

Variant | one-hybrid fitness for binding NBS DNA
CAMG | ≤ 0.2
WKVS | ≤ 0.2
WYLG | ≤ 0.2
RMAN | ≤ 0.2
EPHS | ≤ 0.2
PCSL | ≤ 0.2
PWAR | ≤ 0.2
MNYS | ≤ 0.2
RTLC | ≤ 0.2
RHKY | 0.294
LSLR | ≤ 0.2
NSTI | ≤ 0.2
ETEA | ≤ 0.2
NSIP | ≤ 0.2
DMAS | ≤ 0.2
MVPI | ≤ 0.2
PEWV | ≤ 0.2
LASS | ≤ 0.2
AWDA | ≤ 0.2
NRKV | ≤ 0.2
TPHY | ≤ 0.2
ELLR | ≤ 0.2
NANK | ≤ 0.2
LGNI | ≤ 0.2

Variant | one-hybrid fitness for binding NBS DNA
GPYG | ≤ 0.2
LLMG | ≤ 0.2
MRRV | ≤ 0.2
HWYG | ≤ 0.2
SLNR | ≤ 0.2
RIWD | ≤ 0.2
GLNC | ≤ 0.2
LNPT | ≤ 0.2
RIPS | ≤ 0.2
PCNR | ≤ 0.2
NRMG | ≤ 0.2
EWAG | ≤ 0.2
RPYI | ≤ 0.2
IWNY | ≤ 0.2
GAFN | ≤ 0.2
ICMM | ≤ 0.2
ISHK | ≤ 0.2
PSVM | ≤ 0.2
